B1: LINE1-full (parent)
chain: UACGUAGGUGGUUUUCCCCUGAUAGUGCUAAGGGGGCCUGGAAGUUUGGACUGGGCAGAGCUCAACACAGCGUGGCAAAGUGGCUGUGGCUAGACUGCCUCUCUGGAUUCCUCGUCACUCAGCAGGGCAUCUCUGAGAGAAAUGCC

Read counts are not given, so values of variants with three or more changes are uncertain.

The variants in this series derive from B1. Briefly: self-cleavage, relative activity (ratio to wild type); higher = more cleavage; in vitro, sequencing; the parent is a self-cleaving ribozyme.
U5C U29C G114U A136G: the self-cleavage worked out at 2.27.
Take U5C U39A U73A: the self-cleavage stood at 1.12.
The result for A6G A42U U46C reads 0.97; that for A6G A94G U100C U102A, 0.
With A6U G49A U102A U132C A140G the figure was 0.94.
The result for A6G U62C U109C reads 0.48; that for A6U A30G U104C, 0.69.
Take U5C U13C U47C A77G A140G: the self-cleavage was 1.53.
For the variant A6U U62A U85C U109A A138G, the self-cleavage amounted to 0.22.
For the variant G7U G32U U45A A141G, the self-cleavage turned out to be 1.01.
The result for A6G U81A U132C reads 2.3.
For the variant A6U A67G G125U U143A, the self-cleavage was 0.31.
The result for A6G U45C U46C U52A A121U reads 1.08; that for A6G A57G A78G A140G, 0.38; that for A6U U45C C61U A67U U81C A136G C145U, 0.09.
Take A6G U29C G58A U102A U130C A142G: the self-cleavage was 0.23.
U5C U9C A124G U134C A138U: the self-cleavage came out at 0.
As for A6G A31G A59U A107G G114U C118A A141G, the self-cleavage turned out to be 0.96.
The result for A6G U46C U62A A69G C90A reads 0.22; that for U5C U62C A107G A141G, 0.
Turning to U5C G32C U132C, the self-cleavage was determined as 0.84.
Take A6G U13C A78G A140G: the self-cleavage was determined as 0.48.
The result for U5C U13C A121C reads 1.06; that for A6G U87A A141G, 0.16.
The result for A6G U23C U109C reads 1.15; that for A6G U13C U109C, 0.97; that for A6U U62A A78G A141G, 0.16.
The result for G7C U87A A117U reads 0.04; that for U5C G21A U26C U109A U132C, 2.45.
For A6G U12G U26C A140G, the self-cleavage is 1.5.
With G7C U15A U73C U109C U143C the figure was 0; with U5C G34A A141G, 1.5; with U5C U26C A43G, 1.05.
Take A6G A24G C76U A79U U81A A94G U112C: the self-cleavage was 1.07.
On to G7A U14C U39A G53A A138G, for which the self-cleavage was 1.84.
As to A6G G74A U85C, the self-cleavage came out at 0.37.
With U5C U39A U46C U73C A92G A136U the figure was 2.51; with G8A A69U U130A, 0.1; with U5C U20G G36A A78G A138G A140U, 1.93.
On to A6G U39C U47G U52C, for which the self-cleavage worked out at 0.
Consider A6C U20A U47A U143A, for which the self-cleavage was 1.81.
The result for U5C U15C C37A U85A U112C reads 0.09; that for G7A U108C U134C, 1.67; that for G7U U39A G72A U81C U87C U115C, 1.62.
Consider U5C U14C U15A C71U U100C A142G, for which the self-cleavage amounted to 1.52.
With G7A A67U U73C, the self-cleavage stood at 0.29.
Turning to A6U U20C U46C, the self-cleavage came to 1.76.
The result for A6G U109A A141G reads 0.93; that for U5C U47A A64G A107U, 0.27; that for A6G U13C A78G U91C A94U U132A, 0.
Regarding A6U A22U U39C G41A U87A U104G U115C A141G, the self-cleavage stood at 0.
The result for A6G U9C U134A reads 0.86.
As to U5C U15A C51U U112A A140G, the self-cleavage was 0.54.
With A6G U96C U100C the figure was 0.
With G7U C17U U39C A65U G139A U143G G144A the figure was 0.16.
For A6G A57C U85C, the self-cleavage was determined as 0.
Regarding A6G U15C U104A, the self-cleavage worked out at 0.75.
With A6G A78G A94U C128U U130C, the self-cleavage turned out to be 0.41.
With U5C U39G A65U A79G the figure was 0.23.
On to G8A A65G U85C, for which the self-cleavage came to 0.16.
With U5C U13A U102C U109C the figure was 1.2.
Consider A6U U20C A124G, for which the self-cleavage was 0.18.
For U5C G34A A50U U100C U119C, the self-cleavage turned out to be 0.97.
Take U5C U81C U108C G125A A140G: the self-cleavage stood at 2.16.
With U5C U62C A141G the figure was 0.11; with A6G C56G A67U A136G, 0.15.
With U5C U14C U96C U108C U143C the figure was 0.26; with U5C U20A U26A A117G, 1.84.
On to U5C U15A U29A U130C, for which the self-cleavage is 0.84.
The result for G7A U62A A65G A94G reads 0.
Take A6U A117G A138G: the self-cleavage was 1.88.
The result for A6U U52A G122A reads 1.11.
As for U5C G53U U112C, the self-cleavage was 1.39.
With A6G U45A U104C the figure was 0; with U5C U12C U13C A107G A138G, 0.8; with G7A U15C A67U, 0.18.
On to A6U U15A U132C, for which the self-cleavage worked out at 0.62.
On to A6G A31U A42G U73C U87A, for which the self-cleavage worked out at 0.25.
As to U5C U108A U109A, the self-cleavage amounted to 0.86.
For the variant A6G U100C C120U A140G A142C, the self-cleavage was determined as 1.13.
The result for A6U G44A U100C A136G reads 0.88.
With A6U G27A C51G the figure was 0.84.
As for A6G U47C C110U, the self-cleavage worked out at 0.64.
U5C U62C U91C G93A A140G: the self-cleavage amounted to 0.
The result for U5C U45C A64G reads 0.48; that for A6G A24U A31G U91C A124G, 0.
U5C U13C C37A A69U A141G: the self-cleavage was found to be 0.09.
Turning to G7U A65G A138G, the self-cleavage was determined as 0.18.
As to G7C U9G A78U A129G A136G, the self-cleavage turned out to be 1.06.
As to G7A U29A A67U A121G, the self-cleavage came to 0.22.
On to A6G U9C A57G A129C, for which the self-cleavage came to 0.57.
With A6G U26A U81C U100C the figure was 1.77; with A6G G10A U39A U108A, 0.63; with A6C U13C A78G U119A, 1.68.
For the variant U5C U108C A140G, the self-cleavage is 1.4.
The result for A6G U14C C16A reads 0.66; that for G7A G36U A138G, 2.
The result for A6G A42G A138G reads 1.53; that for U5C U29A A78G U104C, 1.38; that for G7C U91C U130C A138U U143A, 0.74.
Take U5C U14C A50G: the self-cleavage is 0.85.
As to G7U U102C C128U, the self-cleavage came out at 0.63.
U5C U23A G75A U87C: the self-cleavage was determined as 0.2.
As to U5C U26C U46C U81A, the self-cleavage was 1.56.
For A6G A31U A42G, the self-cleavage was found to be 0.
The result for A6G U87G A94U A136G reads 0.43; that for G7C C38U A121G, 0.81; that for U5C G49U U81C, 0.8.
With A6G U12C A42G A140G A142G, the self-cleavage was 1.15.
The result for U5C G7A U39C A141G reads 1.02.
The result for A6G A22G C38A U104A reads 1.05; that for A6G A65G A94U, 0.15; that for A6G U45A A92G, 0.53.
In the case of A6G U73A U91A A138G, the self-cleavage came to 0.89.
With A6U U29C A50U A78G A142G the figure was 0.57.
As to U5C G36A U100C, the self-cleavage is 0.74.
With U5C U14C A67G A142G the figure was 0.85; with A6U A77U U104C A107U U130C, 2.58.
In the case of U5C U13C U29G, the self-cleavage was found to be 2.11.
In the case of U5C U20A U47A U52C, the self-cleavage amounted to 1.25.
On to A6G U14C A141G, for which the self-cleavage is 1.12.
With U5C U26A G36C A67G the figure was 0.68; with U5C U62A A77G A140U, 0.08.
The result for U5C U20C U130C reads 1.02; that for G7A U115A A129G, 1.33.
In the case of G7U A42G A124G, the self-cleavage came to 1.21.
For the variant U5C U9A U100C A141G A142G, the self-cleavage was 0.55.
With A6U U46C U73A U91A A107G A129G the figure was 1.06.
The result for A6G A43G U62C reads 0; that for A6G U73C G139U, 0.
The result for A6U A42G U47A A107U reads 0.71; that for G7A A24G G32A U87C, 0.27.
A6G U14C A121G: the self-cleavage was determined as 0.
As for A6G A42U C101U A136G, the self-cleavage was 0.78.
A6U A50G U85A: the self-cleavage turned out to be 0.08.
As for G7A G21A U132G, the self-cleavage was found to be 1.9.
On to A6U U13C A65G A141G, for which the self-cleavage is 0.
U5C U20C A22G G41A U100C: the self-cleavage turned out to be 1.79.
The result for A6G U87C A124U reads 0; that for A6G U73G A124U, 0.84; that for A6G U14G G58C, 0.17.
The result for U5C U96A A117U A138U reads 0.48.
The result for A6G A50U A64U A142G reads 0.58.
On to A6G G8C U46C A129G, for which the self-cleavage stood at 0.54.
The result for U5C U15C A22G A42G A121U A129G U130C U134A reads 0; that for U5C U26A A43G U102C, 0; that for A6U G36U U62C A79G, 0.07.
With G7C A107G C111U G114A the figure was 2.54; with U5G C38U A57U A78G A79G, 0.22.
With A6G A65G C84G U100C the figure was 0.66; with A6U A43G A69G, 0; with A6U G7A A43G G55A A69U, 0.1.
On to G7A U91C A140G, for which the self-cleavage is 0.
As for U5C U73A U85C A136U, the self-cleavage came to 0.32.
The result for A6G U13C U112C A138C reads 1.71.
Consider A6G U52A U132C, for which the self-cleavage was 0.91.
Turning to A6G U26C A65U U134C, the self-cleavage was 0.36.
With A6U A59G A138G G139A A140G the figure was 0.24; with A6U G34U U73A, 0.3; with U5C U46C A121C U132C, 0.84.
With A6G U20C A22G A138G the figure was 0.
The result for G7U U20C A64G G106U A117U U130C reads 0.14; that for A6U U12C A138G, 1.02.
With A6U G8A A140G, the self-cleavage was determined as 0.91.
With A6G A30U A50G U132C the figure was 1.31.
With A6G G54U G75A U108C the figure was 0.81; with A6G U47A A64C, 0.09.

The values are drawn from the RNAGym collection of RNA variant scans (doi:10.7554/elife.90254).
